# In all, about 71,000 compounds went through this assay and about 1,800 (2.5%) were called active. This list was built around the results that the source calls inconclusive (neither active nor inactive); the mix of calls is not that of the screen. Calls follow the shape of the dose curve; as a rule, active = well fitted activation curve with a large enough effect in the signal ratio, with a control signal flat (not every such curve was filed as active); inconclusive = small, poorly fitted or top-dose-only effect, or effect the other way, or a change in a side signal; inactive = flat fitted curve, though single readings scatter; the % refers to the signal ratio. Potencies of inconclusive entries are doubtful fits and often do not repeat.
# Test: Cell signaling CRE-BLA (Fsk stim); as to activity change, negative = inhibition: % of control where 0% means no effect
# Settings: CHO CRE-bla reporter (cAMP response element driving beta-lactamase), forskolin EC10, beta-lactamase ratio; activity change, negative = inhibition: at 38.2 µM (top of the series) unless noted
# Method in brief: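 CRE-bla CHO reporter cells treated with compound titration plus EC10 NKH 477 (water-soluble forskolin), incubated 3 h at 37 °C; CCF4 loading 2 h at room temperature, 460/530 nm emission ratio read, AC50 values derived for positive or negative modulators.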
# Potency is read from the fitted curve at half-maximal effect; tags tell the direction and shape of the fitted curve.
Compound,Potency,"activity change, negative = inhibition"
COc1cc(NC(=O)c2cc3c(C)nc4ccccc4c3o2)cc(OC)c1OC,active: 1.58 µM,
CN1CCN(c2ncc3nc(-c4ccc(Cl)cc4)c(=O)n(C4CC4)c3n2)CC1,"inconclusive: 2 µM [rising, full curve]",
CC1Cc2ccccc2N1C(=O)CCS(=O)(=O)c1cccc2nonc12 (stereo unspecified),,inconclusive: -1.37%
Cc1cccc(-n2ncc3c(N4CCCC4)ncnc32)c1,,inconclusive: 17.2%
CCC(=O)N1CCCc2cc(S(=O)(=O)N3CCC(N4CCCCC4)CC3)ccc21,,inactive: -15.6%
CCCOc1ccccc1NC(=O)CC1Nc2ccccc2NC1=O (stereo unspecified),"inconclusive: 20 µM [rising, single point]",
COc1ccc(C2=NOC(C(=O)NC3CCCCC3)C2)cc1OC (stereo unspecified),,inconclusive: 29.5%
COc1ccc(-n2nc(C(=O)NCC(=O)NCC3CCCO3)c3ccccc3c2=O)c(OC)c1 (stereo unspecified),,inconclusive: 4.15%
CCOc1ccc(-c2cc(C(=O)NCCCN3CCN(CC)CC3)c3ccccc3n2)cc1,,inconclusive: 25.8%
O=C(Nc1ccc(Cl)c(Cl)c1)Nc1cc(C(=O)N2CCOCC2)ccc1N1CCCCC1,,inconclusive: 23.6%
CC(C)c1nc2oc3c(NCC4CCCO4)ncnc3c2c2c1CCC2 (stereo unspecified),"inconclusive: 5.01 µM [rising, partial curve]",
Cc1nc2cnc(Oc3ccccc3)nc2n(C2CC2)c1=O,,inconclusive: 23.8%
O=C(NCC1CCCO1)c1csc2c1CCCC2 (stereo unspecified),,inactive: 11.3%
COCCn1c(SCc2ccccc2Cl)nc2c1c(=O)[nH]c(=O)n2C,,inconclusive: 24.6%
COc1cc2[nH]c(=S)n(CC3CCCO3)c(=O)c2cc1OC (stereo unspecified),,inconclusive: 19.3%
O=S1(=O)CC(NCc2ccccc2)C(Nc2ccc(Cl)cc2)C1 (stereo unspecified),,inconclusive: 1.38%
Cc1ccc2c(c1)N(CCC(=O)NCCCOC(C)C)C(=O)C(C)O2 (stereo unspecified),active: 12.6 µM,
Cc1cccn2c(=O)c3cc(C(=O)NC(C)C)c(=N)n(Cc4ccncc4)c3nc12,active: 12.6 µM,
C#C[C@]1(O)CC[C@H]2[C@H]3CCC4=Cc5oncc5C[C@]4(C)[C@@H]3CC[C@]21C,,inconclusive: -29.8%
CCC(c1nnnn1Cc1ccc2c(c1)OCO2)N1CCN(c2ccc(F)cc2)CC1 (stereo unspecified),,inactive: 3.94%
C=CCn1c(SCC(O)Cn2c3ccccc3c3ccccc32)nnc1-c1ccco1 (stereo unspecified),,inactive: -9.35%

Compound,Potency,"activity change, negative = inhibition"
CC(=O)O[C@@H]1CC(C)=C2[C@H]1[C@H](C)CC[C@H]2/C=C(\C)C(=O)O,,inactive: -0.321%
Cc1cccc(C(=O)O)c1NC(=O)c1ccc(F)cc1,"inconclusive: 5.01 µM [rising, single point]",
CCOC(=O)c1c(C)[nH]c(C(=O)Cn2c(=O)oc3ccccc32)c1C,"inconclusive: 1 µM [falling, single point]",
Cc1cc(C(=O)CSc2nc3ccccc3[nH]2)c(C)n1C,"inconclusive: 10 µM [rising, single point]",
CSc1nc(N)nc(SCC(=O)c2ccc(C)cc2)c1C#N,"inconclusive: 10 µM [rising, single point]",
Fc1ccccc1Cn1nnc2c(NCCc3ccccn3)ncnc21,,inactive: 8.64%
O=C(O)c1[nH]c2ccccc2c1NS(=O)(=O)Cc1ccccc1,"inconclusive: 31.6 µM [falling, single point]",
CCOC(=O)c1sc(N(Cc2ccccc2)C(=O)CSc2nnc(C3CC3)n2N)nc1C,,inconclusive: 17.3%
CC1CCN(c2ccccc2N)CC1,,inactive: 1.09%
O=C(OCC(=O)N1CCCC1)c1ccccc1OCc1ccccc1,"inconclusive: 12.6 µM [falling, partial curve]",
CN1CCN(c2ncc3ncc(=O)n(C[C@H]4CCCO4)c3n2)CC1,,inactive: -7.92%
COC(=O)CNc1nc(OC)nc(N(C)C)n1,,inactive: 10.9%
CCC(=O)N1CCN(C(=O)CC)C1c1ccccc1,,inconclusive: 5.23%
CN(C)c1ccc(C(=O)C(O)c2ccc(C(C)(C)C)cc2)cc1 (stereo unspecified),,inconclusive: 21.7%
Cc1cccc(Br)c1,,inactive: -6.01%
Cc1ccc(Cn2nnc3c(=O)[nH]c(C4CCN(S(=O)(=O)c5ccc(F)cc5)CC4)nc32)cc1,"inconclusive: 25.1 µM [rising, single point]",
CS(=O)(=O)N1CCCC(C(=O)NCc2ccccn2)C1 (stereo unspecified),,inconclusive: -10%
CCCn1c(N2CCN(CC(=O)c3c[nH]c4ccccc34)CC2)nc2c1c(=O)[nH]c(=O)n2C,"inconclusive: 25.1 µM [rising, single point]",
COCCNc1cc(C)nc2c3c(C)cc(C)nc3nn12,active: 12.6 µM,
N#Cc1nc(Cc2ccccc2)oc1NCCN1CCOCC1,,inactive: 19.3%

# — PubChem BioAssay AID662 (National Center for Advancing Translational Sciences (NCATS), 2007)
